# This is one part of the list. Sequences were assembled here from the parent chain. Values near 0.05 are background.
# B1: TEV protease; numbered along this chain (parent)
# chain: MGESLFKGPRDYNPISSSICHLTNESDGHTTSLYGIGFGPFIITNKHLFRRNNGTLVVQSLHGVFKVKDTTTLQQHLVDGRDMIIIRMPKDFPPFPQKLKFREPQREERICLVTTNFQTKSMSSMVSDTSCTFPSGDGIFWKHWIQTKDGQCGSPLVSTRDGFIVGIHSASNFTNTNNYFTSVPKNFMELLTNQEAQQWVSGWRLNADSVLWGGHKVFMVKPEEPFQPVKEATQL
# Variants of: B1
# Assay: raw area under fraction-flipped curve 0-4 h after induction (AUC4h, not background-subtracted), DNA-recorder readout of cleavage of the substrate (dimensionless); higher = more cleavage of the substrate by the protease variant
# Details: temperature: 34 °C; time window: 0-4 h after rhamnose induction
# Method: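 In vivo DNA recorder in E. coli TOP10(DE3) ΔrhaA at 34 °C. Each TEVp single-site mutant (parent TEVp 0) is paired with a single-site variant of the 7-mer TEVs (canonical ENLYFQ|S). The substrate sits between flexible linkers in a Bxb1-sfGFP-TEVs-SsrA fusion, so cleavage stabilises Bxb1 and speeds flipping of a recombination array, read by NGS. The value is the raw area under the fraction-flipped curve over 0-4 h after rhamnose induction (AUC4h), with ≥20 reads per time point. It is not background-subtracted; inactive controls average about 0.047.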
# 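Note: Bxb1 expression induced with 0.2% (w/v) L-rhamnose at OD600 near 0.5, cultures sampled hourly, flipped fraction per protease–substrate barcode pair counted by paired-end Illumina sequencing.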
variant,measurement,value
MGESLFKGPRDYNPISSSICHLTNESDGHTTSLYGIGFGPFIITNKHLFRRNNGTLVVQSLHGVFKVKDTTTLQQHLVDGRDMIIIRMPKDFPPIPQKLKFREPQREERICLVTTNFQTKSMSSMVSDTSCTFPSGDGIFWKHWIQTKDGQCGSPLVSTRDGFIVGIHSASNFTNTNNYFTSVPKNFMELLTNQEAQQWVSGWRLNADSVLWGGHKVFMVKPEEPFQPVKEATQL [F95I],area with substrate ENAYFQS,0.0439
same,area with substrate ENDYFQS,0.0445
same,area with substrate ENEYFQS,0.0539
same,area with substrate ENGYFQS,0.0513
same,area with substrate ENHYFQS,0.0518
same,area with substrate ENQYFQS,0.0587
same,area with substrate ENSYFQS,0.0607
same,area with substrate ENYYFQS,0.0673
MGESLFKGPRDYNPISSSICHLTNESDGHTTSLYGIGFGPFIITNKHLFRRNNGTLVVQSLHGVFKVKDTTTLQQHLVDGRDMIIIRMPKDFPPKPQKLKFREPQREERICLVTTNFQTKSMSSMVSDTSCTFPSGDGIFWKHWIQTKDGQCGSPLVSTRDGFIVGIHSASNFTNTNNYFTSVPKNFMELLTNQEAQQWVSGWRLNADSVLWGGHKVFMVKPEEPFQPVKEATQL [F95K],area with substrate ENAYFQS,0.0501
same,area with substrate ENDYFQS,0.0481
same,area with substrate ENEYFQS,0.0439
same,area with substrate ENGYFQS,0.0533
same,area with substrate ENNYFQS,0.0589
same,area with substrate ENQYFQS,0.0567
same,area with substrate ENRYFQS,0.0516
same,area with substrate ENTYFQS,0.0654
same,area with substrate ENWYFQS,0.0489
MGESLFKGPRDYNPISSSICHLTNESDGHTTSLYGIGFGPFIITNKHLFRRNNGTLVVQSLHGVFKVKDTTTLQQHLVDGRDMIIIRMPKDFPPCPQKLKFREPQREERICLVTTNFQTKSMSSMVSDTSCTFPSGDGIFWKHWIQTKDGQCGSPLVSTRDGFIVGIHSASNFTNTNNYFTSVPKNFMELLTNQEAQQWVSGWRLNADSVLWGGHKVFMVKPEEPFQPVKEATQL [F95C],area with substrate ENAYFQS,0.04
same,area with substrate ENDYFQS,0.056
same,area with substrate ENEYFQS,0.118
same,area with substrate ENFYFQS,0.0571
same,area with substrate ENIYFQS,0.086
same,area with substrate ENKYFQS,0.0646
same,area with substrate ENNYFQS,0.0563
same,area with substrate ENQYFQS,0.0602
same,area with substrate ENSYFQS,0.0557
same,area with substrate ENVYFQS,0.0397
MGESLFKGPRDYNPISSSICHLTNESDGHTTSLYGIGFGPFIITNKHLFRRNNGTLVVQSLHGVFKVKDTTTLQQHLVDGRDMIIIRMPKDFVPFPQKLKFREPQREERICLVTTNFQTKSMSSMVSDTSCTFPSGDGIFWKHWIQTKDGQCGSPLVSTRDGFIVGIHSASNFTNTNNYFTSVPKNFMELLTNQEAQQWVSGWRLNADSVLWGGHKVFMVKPEEPFQPVKEATQL [P93V],area with substrate ENAYFQS,0.0664
same,area with substrate ENCYFQS,0.0672
same,area with substrate ENEYFQS,0.0476
same,area with substrate ENGYFQS,0.0566
same,area with substrate ENIYFQS,0.107
same,area with substrate ENKYFQS,0.047
same,area with substrate ENMYFQS,0.0909
same,area with substrate ENPYFQS,0.0675
same,area with substrate ENQYFQS,0.0427
same,area with substrate ENSYFQS,0.0739
MGESLFKGPRDYNPISSSICHLTNESDGHTTSLYGIGFGPFIITNKHLFRRNNGTLVVQSLHGVFKVKDTTTLQQHLVDGRDMIIIRMPKDFPRFPQKLKFREPQREERICLVTTNFQTKSMSSMVSDTSCTFPSGDGIFWKHWIQTKDGQCGSPLVSTRDGFIVGIHSASNFTNTNNYFTSVPKNFMELLTNQEAQQWVSGWRLNADSVLWGGHKVFMVKPEEPFQPVKEATQL [P94R],area with substrate ENAYFQS,0.0524
same,area with substrate ENCYFQS,0.0669
same,area with substrate ENDYFQS,0.067
same,area with substrate ENEYFQS,0.0455
same,area with substrate ENGYFQS,0.0565
same,area with substrate ENNYFQS,0.075
same,area with substrate ENPYFQS,0.0608
same,area with substrate ENQYFQS,0.046
same,area with substrate ENRYFQS,0.052
same,area with substrate ENTYFQS,0.0326
same,area with substrate ENWYFQS,0.0437
MGESLFKGPRDYNPISSSICHLTNESDGHTTSLYGIGFGPFIITNKHLFRRNNGTLVVQSLHGVFKVKDTTTLQQHLVDGRDMIIIRMPKDFPSFPQKLKFREPQREERICLVTTNFQTKSMSSMVSDTSCTFPSGDGIFWKHWIQTKDGQCGSPLVSTRDGFIVGIHSASNFTNTNNYFTSVPKNFMELLTNQEAQQWVSGWRLNADSVLWGGHKVFMVKPEEPFQPVKEATQL [P94S],area with substrate ENAYFQS,0.0518
same,area with substrate ENDYFQS,0.0774
same,area with substrate ENMYFQS,0.0757
same,area with substrate ENNYFQS,0.083
same,area with substrate ENQYFQS,0.0616
same,area with substrate ENSYFQS,0.0724
same,area with substrate ENVYFQS,0.0711
MGESLFKGPRDYNPISSSICHLTNESDGHTTSLYGIGFGPFIITNKHLFRRNNGTLVVQSLHGVFKVKDTTTLQQHLVDGRDMIIIRMPKDFPPFPQKLKCREPQREERICLVTTNFQTKSMSSMVSDTSCTFPSGDGIFWKHWIQTKDGQCGSPLVSTRDGFIVGIHSASNFTNTNNYFTSVPKNFMELLTNQEAQQWVSGWRLNADSVLWGGHKVFMVKPEEPFQPVKEATQL [F101C],area with substrate ENAYFQS,0.0523
same,area with substrate ENDYFQS,0.0656
same,area with substrate ENEYFQS,0.0538
same,area with substrate ENFYFQS,0.0538
same,area with substrate ENGYFQS,0.0759
same,area with substrate ENHYFQS,0.0591
same,area with substrate ENKYFQS,0.06
same,area with substrate ENMYFQS,0.0598
same,area with substrate ENNYFQS,0.059
same,area with substrate ENPYFQS,0.0661
same,area with substrate ENQYFQS,0.0614
same,area with substrate ENRYFQS,0.0587
same,area with substrate ENTYFQS,0.0621
same,area with substrate ENVYFQS,0.047
same,area with substrate ENWYFQS,0.0583
MGESLFKGPRDYNPISSSICHLTNESDGHTTSLYGIGFGPFIITNKHLFRRNNGTLVVQSLHGVFKVKDTTTLQQHLVDGRDMIIIRMPKDFPPFPQKLKLREPQREERICLVTTNFQTKSMSSMVSDTSCTFPSGDGIFWKHWIQTKDGQCGSPLVSTRDGFIVGIHSASNFTNTNNYFTSVPKNFMELLTNQEAQQWVSGWRLNADSVLWGGHKVFMVKPEEPFQPVKEATQL [F101L],area with substrate ENAYFQS,0.057
same,area with substrate ENCYFQS,0.0633
same,area with substrate ENDYFQS,0.0559
same,area with substrate ENEYFQS,0.0641
same,area with substrate ENGYFQS,0.0485
same,area with substrate ENIYFQS,0.0975
same,area with substrate ENKYFQS,0.0463
same,area with substrate ENMYFQS,0.0719
same,area with substrate ENQYFQS,0.0526
same,area with substrate ENSYFQS,0.063
same,area with substrate ENTYFQS,0.0607
same,area with substrate ENVYFQS,0.066
same,area with substrate ENYYFQS,0.0782
MGESLFKGPRDYNPISSSICHLTNESDGHTTSLYGIGFGPFIITNKHLFRRNNGTLVVQSLHGVFKVKDTTTLQQHLVDGRDMIIIRMPKDFPPFPQKGKFREPQREERICLVTTNFQTKSMSSMVSDTSCTFPSGDGIFWKHWIQTKDGQCGSPLVSTRDGFIVGIHSASNFTNTNNYFTSVPKNFMELLTNQEAQQWVSGWRLNADSVLWGGHKVFMVKPEEPFQPVKEATQL [L99G],area with substrate ENAYFQS,0.0653
same,area with substrate ENEYFQS,0.0608
same,area with substrate ENFYFQS,0.0719
same,area with substrate ENPYFQS,0.0583
same,area with substrate ENRYFQS,0.0535
same,area with substrate ENSYFQS,0.0538
same,area with substrate ENTYFQS,0.0596
same,area with substrate ENVYFQS,0.0629
MGESLFKGPRDYNPISSSICHLTNESDGHTTSLYGIGFGPFIITNKHLFRRNNGTLVVQSLHGVFKVKDTTTLQQHLVDGRDMIIIRMPKDFPPFPQKFKFREPQREERICLVTTNFQTKSMSSMVSDTSCTFPSGDGIFWKHWIQTKDGQCGSPLVSTRDGFIVGIHSASNFTNTNNYFTSVPKNFMELLTNQEAQQWVSGWRLNADSVLWGGHKVFMVKPEEPFQPVKEATQL [L99F],area with substrate ENAYFQS,0.0721
same,area with substrate ENCYFQS,0.0582
same,area with substrate ENHYFQS,0.0594
same,area with substrate ENKYFQS,0.0552
same,area with substrate ENMYFQS,0.0844
same,area with substrate ENNYFQS,0.0541
same,area with substrate ENQYFQS,0.0574
same,area with substrate ENSYFQS,0.0552
same,area with substrate ENVYFQS,0.0883
